Like-named read-outs stand apart in the source and are kept apart here.
What was measured:
[1] = molecular target: T1, murine EGFR protein (murine, UniProt Q01279 25-647)
T1 construct: Bought protein

[2] = molecular target: T1, murine EGFR protein; remark: listed apart in the source
[3] = molecular target: T1, murine EGFR protein; remark: listed apart in the source
[4] = molecular target: T1, murine EGFR protein; remark: listed apart in the source
[5] = molecular target: T2, human EGFRvIII-His tag protein (extracellular domain Leu25-Ser378) (human, UniProt P00533 in part)
T2 construct: Made in HEK293E cells, purified on nickel column; also called human EGFRvIII protein; EGFRvIII protein; not shown: His tag

[6] = molecular target: T1, murine EGFR protein; remark: listed apart in the source
[7] = molecular target: T2, human EGFRvIII-His tag protein …; remark: listed apart in the source
[8] = molecular target: T1, murine EGFR protein; remark: listed apart in the source
[9] = molecular target: T2, human EGFRvIII-His tag protein …; remark: listed apart in the source
[10] = molecular target: T2, human EGFRvIII-His tag protein …; remark: listed apart in the source
[11] = molecular target: T1, murine EGFR protein; remark: listed apart in the source
[12] = molecular target: T2, human EGFRvIII-His tag protein …; remark: listed apart in the source
[13] = molecular target: T2, human EGFRvIII-His tag protein …; remark: listed apart in the source
[14] = molecular target: T2, human EGFRvIII-His tag protein …; remark: listed apart in the source
[15] = molecular target: T1, murine EGFR protein; remark: listed apart in the source
[16] = molecular target: T2, human EGFRvIII-His tag protein …; remark: listed apart in the source

B1: S008-NB148-25 VHH-Fc antibody (Fc fusion)
chain: EVQLVESGGGLVQPGGSLRLSCAVSQSISSINAMDWYRQAPGKQRELVAIIFNNGRTNYADSVKGRFTISRDNARNTVYLQMNSLKPEDTAVYYCNIVPPLRNWGQGTQVTVSS[human IgG1 Fc with changes not shown]
OD450 [1]: 0.05 | OD450 [2]: 0.06 | OD450 [3]: 0.05 | OD450 [4]: 0.08 | OD450 [5]: 2.37 | OD450 [6]: 0.05 | OD450 [7]: 2.41 | OD450 [8]: 0.05 | OD450 [9]: 2.06 | OD450 [10]: 2.71 | OD450 [11]: 0.05 | OD450 [12]: 0.77 | OD450 [13]: 0.17 | OD450 [14]: 0.07 | OD450 [15]: 0.05 | OD450 [16]: 0.08

B2: S008-NB148-30 VHH-Fc antibody (Fc fusion)
chain: EVQLVESGGGLVRAGGSLRLSCAASGTISSYDVVGWYRQAPGKQRELVALIGTDRWLNLGDFAKGRFTMSTDDAANTVDLEMNSLKPEDTAVYYCYTFQHTVGPRWGQGTQVTVSS[human IgG1 Fc with changes not shown]
OD450 [1]: 1.36 | OD450 [2]: 2.46 | OD450 [3]: 0.27 | OD450 [4]: 2.39 | OD450 [5]: 2.38 | OD450 [6]: 0.08 | OD450 [7]: 2.64 | OD450 [8]: 0.06 | OD450 [9]: 1.98 | OD450 [10]: 2.78 | OD450 [11]: 0.05 | OD450 [12]: 0.71 | OD450 [13]: 0.24 | OD450 [14]: 0.15 | OD450 [15]: 0.06 | OD450 [16]: 0.08

B3: S008-NB148-48 VHH-Fc antibody (Fc fusion)
chain: QLQLVESGGGLVQAGGSLKLSCVASGFTFSNYAMAWYRQAPGKQRELIASCSASCIWTNYGASVKGRFTMSLDNAKKTVYLQMDSLKPEDTAVYYCRNLDANYWGQGTQVTVSS[human IgG1 Fc with changes not shown]
OD450 [1]: 2.77 | OD450 [2]: 2.79 | OD450 [3]: 2.46 | OD450 [4]: 2.99 | OD450 [5]: 2.59 | OD450 [6]: 0.92 | OD450 [7]: 2.54 | OD450 [8]: 0.2 | OD450 [9]: 2.06 | OD450 [10]: 2.57 | OD450 [11]: 0.09 | OD450 [12]: 0.75 | OD450 [13]: 0.18 | OD450 [14]: 0.09 | OD450 [15]: 0.07 | OD450 [16]: 0.07

B4: S008-NB148-5 VHH-Fc antibody (Fc fusion)
chain: QLQLVESGGGLVQAGGSLRLSCAVSISTFTTNGWDWYRQAPGKQRELVALISNDGTTTYTDSVKGRFTISRDGAKNTVYLQMNNLKPEDTAVYYCNTIPPAGSWGQGTQVTVSS[human IgG1 Fc with changes not shown]
OD450 [1]: 0.05 | OD450 [2]: 0.05 | OD450 [3]: 0.05 | OD450 [4]: 0.07 | OD450 [5]: 2.08 | OD450 [6]: 0.05 | OD450 [7]: 2.47 | OD450 [8]: 0.05 | OD450 [9]: 1.92 | OD450 [10]: 2.52 | OD450 [11]: 0.05 | OD450 [12]: 0.75 | OD450 [13]: 0.16 | OD450 [14]: 0.07 | OD450 [15]: 0.08 | OD450 [16]: 0.07

B5: S008-NB148-77 VHH-Fc antibody (Fc fusion)
chain: EVQVVESGGGLVQAGGSLRLSCVASGFDFSDSVMGWYRQAPGKQREAVAIISSVGQSNYRDSVQGRFTVSRSNTENTMYLQMDSLKPEDTAIYYCKKFGPGEYWGQGTQVTVSS[human IgG1 Fc with changes not shown]
OD450 [1]: 2.16 | OD450 [2]: 2.21 | OD450 [3]: 1.77 | OD450 [4]: 2.17 | OD450 [5]: 2.01 | OD450 [6]: 0.52 | OD450 [7]: 2.06 | OD450 [8]: 0.1 | OD450 [9]: 1.82 | OD450 [10]: 2.32 | OD450 [11]: 0.05 | OD450 [12]: 0.62 | OD450 [13]: 0.13 | OD450 [14]: 0.05 | OD450 [15]: 0.05 | OD450 [16]: 0.04

B6: S008-NB148-8 VHH-Fc antibody (Fc fusion)
chain: EVQLVESGGGLVQAGGSLRLSCVVSGSTFSSYAMGWYRQAPGKQRELVAAISSGVSANVADSLKGRFAISRDNAKNAVYLQMNSLKPEDTAVYYCNTLPRSMPYWGKGTLVTVSS[human IgG1 Fc with changes not shown]
OD450 [1]: 2.73 | OD450 [2]: 2.85 | OD450 [3]: 2.43 | OD450 [4]: 2.93 | OD450 [5]: 2.22 | OD450 [6]: 1 | OD450 [7]: 2.4 | OD450 [8]: 0.19 | OD450 [9]: 1.86 | OD450 [10]: 2.5 | OD450 [11]: 0.07 | OD450 [12]: 0.69 | OD450 [13]: 0.15 | OD450 [14]: 0.07 | OD450 [15]: 0.07 | OD450 [16]: 0.07

B7: S008-NB149-12 VHH-Fc antibody (Fc fusion)
chain: QVQLVESGGGLVQPGGSLRLSCVVSESISVINAMTWYRQAPGKQRELVALISRGGSTNYADSVKGRFTISRDNAKNSVYLQMNSLKPEDTALYYCNVVPPLGSWGQGTQVTVSS[human IgG1 Fc with changes not shown]
OD450 [1]: 0.05 | OD450 [2]: 0.05 | OD450 [3]: 0.05 | OD450 [4]: 0.06 | OD450 [5]: 1.95 | OD450 [6]: 0.05 | OD450 [7]: 2.21 | OD450 [8]: 0.05 | OD450 [9]: 1.6 | OD450 [10]: 2.14 | OD450 [11]: 0.05 | OD450 [12]: 0.53 | OD450 [13]: 0.1 | OD450 [14]: 0.05 | OD450 [15]: 0.05 | OD450 [16]: 0.04

B8: S008-NB149-15 VHH-Fc antibody (Fc fusion)
chain: QLQLVESGGGLVRPGGSLRLSCAASGSIFSRSGATWYRQAPGKQRELVALLTRDGHTDYPVVSVKGRFTISKDNAKNTVYLQMNSLQPEDTAVYYCNAIPPLGSWGRGTQVTVSS[human IgG1 Fc with changes not shown]
OD450 [1]: 0.05 | OD450 [2]: 0.05 | OD450 [3]: 0.05 | OD450 [4]: 0.08 | OD450 [5]: 2.12 | OD450 [6]: 0.05 | OD450 [7]: 2.36 | OD450 [8]: 0.05 | OD450 [9]: 2.01 | OD450 [10]: 2.36 | OD450 [11]: 0.05 | OD450 [12]: 0.99 | OD450 [13]: 0.24 | OD450 [14]: 0.1 | OD450 [15]: 0.05 | OD450 [16]: 0.1

B9: S008-NB149-22 VHH-Fc antibody (Fc fusion)
chain: QVQLVESGGGLVQAGGSLRLSCVASGRFPSIYRMAWFRQAPGKERDFVAAINWGGTATYYEDSVKGRFTISRDNTKNTVWLQMNSLKPEDTAVYYCAAGTGTTYTPQRGDAYGYWGQGTQVTVSS[human IgG1 Fc with changes not shown]
OD450 [1]: 0.05 | OD450 [2]: 0.05 | OD450 [3]: 0.05 | OD450 [4]: 0.07 | OD450 [5]: 1.93 | OD450 [6]: 0.05 | OD450 [7]: 2.19 | OD450 [8]: 0.05 | OD450 [9]: 1.47 | OD450 [10]: 2.3 | OD450 [11]: 0.05 | OD450 [12]: 0.38 | OD450 [13]: 0.08 | OD450 [14]: 0.04 | OD450 [15]: 0.05 | OD450 [16]: 0.04

Reference: patent US20240101686A1 (SIMCERE ZAIMING PHARMACEUTICAL, published 2024)
